T1: recombinant monkey TfR (r monkey TfR: Sino Biological Inc.), crab-eating monkey TfR extracellular region with … (crab-eating monkey (Macaca fascicularis))
T1 construct: Bought from Sino Biological; also called r monkey TfR-ECD (Histag); not shown: histidine tag at the N-terminus
T1 chain: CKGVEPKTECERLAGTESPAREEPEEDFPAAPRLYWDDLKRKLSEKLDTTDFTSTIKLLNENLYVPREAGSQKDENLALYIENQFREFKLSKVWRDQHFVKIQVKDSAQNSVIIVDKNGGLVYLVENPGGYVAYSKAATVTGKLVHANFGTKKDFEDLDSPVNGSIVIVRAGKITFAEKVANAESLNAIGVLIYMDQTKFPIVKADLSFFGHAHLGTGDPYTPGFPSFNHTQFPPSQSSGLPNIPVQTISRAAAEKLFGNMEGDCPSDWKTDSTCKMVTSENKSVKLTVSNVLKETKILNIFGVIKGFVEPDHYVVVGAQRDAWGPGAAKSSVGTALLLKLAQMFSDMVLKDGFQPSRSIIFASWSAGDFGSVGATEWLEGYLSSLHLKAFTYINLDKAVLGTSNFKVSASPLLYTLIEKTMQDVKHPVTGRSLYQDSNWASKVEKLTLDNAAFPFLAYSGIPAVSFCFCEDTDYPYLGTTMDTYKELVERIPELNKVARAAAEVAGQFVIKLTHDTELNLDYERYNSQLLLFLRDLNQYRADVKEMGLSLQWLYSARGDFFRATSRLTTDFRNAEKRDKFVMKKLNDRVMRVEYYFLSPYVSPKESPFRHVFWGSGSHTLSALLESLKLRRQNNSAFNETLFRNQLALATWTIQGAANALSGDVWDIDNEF


What was measured:
[1] = molecular target: T1, recombinant monkey TfR (r monkey TfR: …); test: BLI (Octet RED96), His-tagged TfR ECD on Ni-NTA sensor
[2] = molecular target: T2, recombinant human TfR (r human TfR: Sino Biological Inc.), hTfR extracellular region with a histidine tag at … (human, UniProt P02786); test: as above
T2 construct: Bought from Sino Biological; also called r human TfR-ECD (Histag); recombinant hTfR; not shown: histidine tag at the N-terminus

| Binder | Kd [1] [pM] | koff [1] [s⁻¹] | kon [1] [M⁻¹ s⁻¹] | Kd [2] [pM] | koff [2] [s⁻¹] | kon [2] [M⁻¹ s⁻¹] |
| --- | --- | --- | --- | --- | --- | --- |
| IgG4 GS20-IDUA (other, also called IgG4 HC-GS20-IDUA) light: DIVMTQTPLSLSVTPGQPASISCRSSQSLVHSNGNTYLHWYLQKPGQSPQLLIYKVSNRFSGVPDRFSGSGSGTDFTLKISRVEAEDVGVYYCSQSTHVPWTFGQGTKVEIKRTVAAPSVFIFPPSDEQLKSGTASVVCLLNNFYPREAKVQWKVDNALQSGNSQESVTEQDSKDSTYSLSSTLTLSKADYEKHKVYACEVTHQGLSSPVTKSFNRGEC heavy: EVQLVQSGAEVKKPGESLKISCKGSGYSFMNYWLGWVRQMPGKGLEWMGDIYPGGDYPTYSEKFKVQVTISADKSISTAYLQLSSLKASDTAMYYCARSGNYDEVAYWGQGTLVTVSSASTKGPSVFPLAPCSRSTSESTAALGCLVKDYFPEPVTVSWNSGALTSGVHTFPAVLQSSGLYSLSSVVTVPSSSLGTKTYTCNVDHKPSNTKVDKRV[sequence of human IgG4 Fc with S228P L445P (EU numbers) omitted]GGGGSGGGGSGGGGSGGGGSGGGGSGGGGSGGGGSGGGGSGGGGSGGGGSGGGGSGGGGSGGGGSGGGGSGGGGSGGGGSGGGGSGGGGSGGGGSGGGGSAEAPHLVHVDAARALWPLRRFWRSTGFCPPLPHSQADQYVLSWDQQLNLAYVGAVPHRGIKQVRTHWLLELVTTRGSTGRGLSYNFTHLDGYLDLLRENQLLPGFELMGSASGHFTDFEDKQQVFEWKDLVSSLARRYIGRYGLAHVSKWNFETWNEPDHHDFDNVSMTMQGFLNYYDACSEGLRAASPALRLGGPGDSFHTPPRSPLSWGLLRHCHDGTNFFTGEAGVRLDYISLHRKGARSSISILEQEKVVAQQIRQLFPKFADTPIYNDEADPLVGWSLPQPWRADVTYAAMVVKVIAQHQNLLLANTTSAFPYALLSNDNAFLSYHPHPFAQRTLTARFQVNNTRPPHVQLLRKPVLTAMGLLALLDEEQLWAEVSQAGTVLDSNHTVGVLASAHRPQGPADAWRAAVLIYASDDTRAHPNRSVAVTLRLRGVPPGPGLVYVTRYLDNGLCSPDGEWRRLGRPVFPTAEQFRRMRAAEDPVAAAPRPLPAGGRLTLRPALRLPSLLLVHVCARPEKPPGQVTRLRALPLTQGQLVLVWSDEHVGSKCLWTYEIQFSQDGKAYTPVSRKPSTFNLFVFSPDTGAVSGSYRVRALDYWARPGPFSDPVPYLEVPVPRGPPSPGNP | < 1 | < 1e-07 | 481000 | < 1 | < 1e-07 | 924000 |
| IgG4 GS10-ARSA (other, also called IgG4 HC-GS10-ARSA) light: DIVMTQTPLSLSVTPGQPASISCRSSQSLVHSNGNTYLHWYLQKPGQSPQLLIYKVSNRFSGVPDRFSGSGSGTDFTLKISRVEAEDVGVYYCSQSTHVPWTFGQGTKVEIKRTVAAPSVFIFPPSDEQLKSGTASVVCLLNNFYPREAKVQWKVDNALQSGNSQESVTEQDSKDSTYSLSSTLTLSKADYEKHKVYACEVTHQGLSSPVTKSFNRGEC heavy: EVQLVQSGAEVKKPGESLKISCKGSGYSFMNYWLGWVRQMPGKGLEWMGDIYPGGDYPTYSEKFKVQVTISADKSISTAYLQLSSLKASDTAMYYCARSGNYDEVAYWGQGTLVTVSSASTKGPSVFPLAPCSRSTSESTAALGCLVKDYFPEPVTVSWNSGALTSGVHTFPAVLQSSGLYSLSSVVTVPSSSLGTKTYTCNVDHKPSNTKVDKRV[sequence of human IgG4 Fc with S228P L445P (EU numbers) omitted]GGGGSGGGGSGGGGSGGGGSGGGGSGGGGSGGGGSGGGGSGGGGSGGGGSRPPNIVLIFADDLGYGDLGCYGHPSSTTPNLDQLAAGGLRFTDFYVPVSLCTPSRAALLTGRLPVRMGMYPGVLVPSSRGGLPLEEVTVAEVLAARGYLTGMAGKWHLGVGPEGAFLPPHQGFHRFLGIPYSHDQGPCQNLTCFPPATPCDGGCDQGLVPIPLLANLSVEAQPPWLPGLEARYMAFAHDLMADAQRQDRPFFLYYASHHTHYPQFSGQSFAERSGRGPFGDSLMELDAAVGTLMTAIGDLGLLEETLVIFTADNGPETMRMSRGGCSGLLRCGKGTTYEGGVREPALAFWPGHIAPGVTHELASSLDLLPTLAALAGAPLPNVTLDGFDLSPLLLGTGKSPRQSLFFYPSYPDEVRGVFAVRTGKYKAHFFTQGSAHSDTTADPACHASSSLTAHEPPLLYDLSKDPGENYNLLGGVAGATPEVLQALKQLQLLKAQLDAAVTFGPSQVARGEDPALQICCHPGCTPRPACCHCPDPHA | < 1 | < 1e-07 | 169000 | < 1 | < 1e-07 | 460000 |

Continued, values first:

| Kd [1] [pM] | koff [1] [s⁻¹] | kon [1] [M⁻¹ s⁻¹] | Kd [2] [pM] | koff [2] [s⁻¹] | kon [2] [M⁻¹ s⁻¹] | Binder |
| --- | --- | --- | --- | --- | --- | --- |
| < 1 | < 1e-07 | 561000 | < 1 | < 1e-07 | 980000 | IgG4 IDUA (other, also called IgG4 HC-IDUA) light: DIVMTQTPLSLSVTPGQPASISCRSSQSLVHSNGNTYLHWYLQKPGQSPQLLIYKVSNRFSGVPDRFSGSGSGTDFTLKISRVEAEDVGVYYCSQSTHVPWTFGQGTKVEIKRTVAAPSVFIFPPSDEQLKSGTASVVCLLNNFYPREAKVQWKVDNALQSGNSQESVTEQDSKDSTYSLSSTLTLSKADYEKHKVYACEVTHQGLSSPVTKSFNRGEC heavy: EVQLVQSGAEVKKPGESLKISCKGSGYSFMNYWLGWVRQMPGKGLEWMGDIYPGGDYPTYSEKFKVQVTISADKSISTAYLQLSSLKASDTAMYYCARSGNYDEVAYWGQGTLVTVSSASTKGPSVFPLAPCSRSTSESTAALGCLVKDYFPEPVTVSWNSGALTSGVHTFPAVLQSSGLYSLSSVVTVPSSSLGTKTYTCNVDHKPSNTKVDKRV[sequence of human IgG4 Fc with S228P L445P (EU numbers) omitted]GSAEAPHLVHVDAARALWPLRRFWRSTGFCPPLPHSQADQYVLSWDQQLNLAYVGAVPHRGIKQVRTHWLLELVTTRGSTGRGLSYNFTHLDGYLDLLRENQLLPGFELMGSASGHFTDFEDKQQVFEWKDLVSSLARRYIGRYGLAHVSKWNFETWNEPDHHDFDNVSMTMQGFLNYYDACSEGLRAASPALRLGGPGDSFHTPPRSPLSWGLLRHCHDGTNFFTGEAGVRLDYISLHRKGARSSISILEQEKVVAQQIRQLFPKFADTPIYNDEADPLVGWSLPQPWRADVTYAAMVVKVIAQHQNLLLANTTSAFPYALLSNDNAFLSYHPHPFAQRTLTARFQVNNTRPPHVQLLRKPVLTAMGLLALLDEEQLWAEVSQAGTVLDSNHTVGVLASAHRPQGPADAWRAAVLIYASDDTRAHPNRSVAVTLRLRGVPPGPGLVYVTRYLDNGLCSPDGEWRRLGRPVFPTAEQFRRMRAAEDPVAAAPRPLPAGGRLTLRPALRLPSLLLVHVCARPEKPPGQVTRLRALPLTQGQLVLVWSDEHVGSKCLWTYEIQFSQDGKAYTPVSRKPSTFNLFVFSPDTGAVSGSYRVRALDYWARPGPFSDPVPYLEVPVPRGPPSPGNP |
| < 1 | < 1e-07 | 307000 | < 1 | < 1e-07 | 737000 | IgG4 PPT1 (other, Antibody-enzyme fusion: heavy chain (IgG4) of antibody No. 3N, Gly-Ser, then hPPT-1; also called IgG4 HC-PPT1) light: DIVMTQTPLSLSVTPGQPASISCRSSQSLVHSNGNTYLHWYLQKPGQSPQLLIYKVSNRFSGVPDRFSGSGSGTDFTLKISRVEAEDVGVYYCSQSTHVPWTFGQGTKVEIKRTVAAPSVFIFPPSDEQLKSGTASVVCLLNNFYPREAKVQWKVDNALQSGNSQESVTEQDSKDSTYSLSSTLTLSKADYEKHKVYACEVTHQGLSSPVTKSFNRGEC heavy: EVQLVQSGAEVKKPGESLKISCKGSGYSFMNYWLGWVRQMPGKGLEWMGDIYPGGDYPTYSEKFKVQVTISADKSISTAYLQLSSLKASDTAMYYCARSGNYDEVAYWGQGTLVTVSSASTKGPSVFPLAPCSRSTSESTAALGCLVKDYFPEPVTVSWNSGALTSGVHTFPAVLQSSGLYSLSSVVTVPSSSLGTKTYTCNVDHKPSNTKVDKRV[sequence of human IgG4 Fc with S228P L445P (EU numbers) omitted]GSDPPAPLPLVIWHGMGDSCCNPLSMGAIKKMVEKKIPGIYVLSLEIGKTLMEDVENSFFLNVNSQVTTVCQALAKDPKLQQGYNAMGFSQGGQFLRAVAQRCPSPPMINLISVGGQHQGVFGLPRCPGESSHICDFIRKTLNAGAYSKVVQERLVQAEYWHDPIKEDVYRNHSIFLADINQERGINESYKKNLMALKKFVMVKFLNDSIVDPVDSEWFGFYRSGQAKETIPLQETSLYTQDRLGLKEMDNAGQLVFLATEGDHLQLSEEWFYAHIIPFLG |
